This note sets out measurements from PubChem BioAssay AID1347073 (National Center for Advancing Translational Sciences (NCATS), 2019).

The campaign covered roughly 45,000 compounds. About 200 (0.44%) were called active. Roughly 7% stayed inconclusive and do not appear here. The call rests on the fitted dose curve; in most records, active means well fitted activation curve with a large enough effect; inconclusive means small, poorly fitted or top-dose-only effect; inactive means no such curve, though single readings can be large or run the other way. The list shows a part of the results.

This assay can be described thus: qHTS of TDP-43 Inhibitors: NCGC Sytravon Library Screen. Further: 0% is about no effect; nearly all actives have a fitted effect of over 55% in size. Conditions: yeast TDP-43 toxicity rescue, BacTiter-Glo growth, 24 h; series mostly up to 46.1 µM; growth rescue (activation): at the top concentration. In a few lines: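 TDP-43-expressing yeast, pregrown in raffinose, seeded at OD600 0.02 in galactose medium with compound for 24 hr at 30 deg C. Growth read by BacTiter-Glo luminescence, so rescue of toxicity appears as activation.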
Background: qHTS replaces the single test concentration by a dilution series.
As to `CC1(C(=O)Nc2cccnc2)Cc2c(-c3cccc(C(F)(F)F)c3)ccnc2O1` (stereo not drawn), the “growth rescue (activation)” value is inactive: 5.66%.

`CCCc1cc(=O)[nH]c(SCC(=O)N2C(C)CCCC2C)n1` (stereo not drawn): the “growth rescue (activation)” value was inactive: 14.8%.

Consider `COc1ccccc1/C=C/C=N/NC(=O)CCn1cnc2ccccc21`, for which the “growth rescue (activation)” value is inactive: -11.5%.

In the case of `O=C(NCC1CCCCC1)c1cccnc1Cl`, the “growth rescue (activation)” value is inactive: -3.98%.

With `CCn1c(COc2cccc3cccnc23)nnc1SC(F)F`, the “growth rescue (activation)” value is inactive: -25.4%.

On to `O=S(=O)(Nc1cccc(S(=O)(=O)N2CCOCC2)c1)c1cccs1`, for which the “growth rescue (activation)” value was inactive: 7.07%.

As for `O=C1NC2(CCSC2)C(=O)N1CC(=O)N(Cc1ccccc1)C1CCS(=O)(=O)C1` (stereo not drawn), the “growth rescue (activation)” value was inactive: 4.85%.

On to `O=C(COC(=O)Cn1nnc(-c2ccccc2)n1)Nc1ccccc1Br`, for which the “growth rescue (activation)” value was inactive: 8.98%.

In the case of `O=C(Nc1cccc(S(=O)(=O)Nc2ccc(SC(F)F)cc2)c1)C1CCC1`, the “growth rescue (activation)” value was inactive: 14.4%.

As to `O=C(CSc1nnc(SCc2ccccc2Cl)s1)N/N=C/c1c[nH]c2ccccc12`, the “growth rescue (activation)” value was inactive: 10.7%.

Take `CCNS(=O)(=O)c1ccc(CCC(N)=O)cc1`: the “growth rescue (activation)” value was inactive: -21.2%.

On to `N#Cc1sc2nc(C3CC3)cc(-c3ccc(Cl)cc3)c2c1N`, for which the “growth rescue (activation)” value is inactive: 10.5%.

For the compound `Cc1ccc2nc(Cl)c(C3CC(c4ccco4)=NN3C(=O)CCCC(=O)O)cc2c1` (stereo not drawn), the “growth rescue (activation)” value is inactive: -72.8%.

`COc1ccc(CN2CCCC(CNC(=O)c3ccc(F)cc3)C2)c(F)c1` (stereo not drawn): the “growth rescue (activation)” value is inactive: 2.01%.

As for `COc1ccc(C2(C(=O)N3CCOCC3)CCOCC2)cc1OC`, the “growth rescue (activation)” value was inactive: 11.9%.

With `O=C(CCCN1C(=O)/C(=C/c2cccs2)SC1=S)Nc1ccc(O)cc1`, the “growth rescue (activation)” value was inactive: 5.62%.

For `COCCNc1nc(NCCOc2ccccc2Cl)c2sc(-c3ccccc3)cc2n1`, the “growth rescue (activation)” value was inactive: -0.765%.

For the compound `CSC1=N/C(=C\c2ccccc2F)C(=O)S1`, the “growth rescue (activation)” value was inactive: 4.37%.

Turning to `Cc1cc(C)c(C(=O)CN2C(=O)NC3(CCCCCC3)C2=O)cc1C`, the “growth rescue (activation)” value was inactive: -32.3%.

As for `CCc1ccc(CN(C)C(=O)c2cccc(S(=O)(=O)Nc3ccccc3OC)c2)cc1`, the “growth rescue (activation)” value is inactive: 13%.

Consider `COc1cc(OC)cc(C(=O)N[C@H](C(=O)NC2CCCc3ccccc32)C(C)C)c1` (stereo partly drawn), for which the “growth rescue (activation)” value is inactive: 12.8%.

With `OCCNc1ncnc2ccc(Br)cc12`, the “growth rescue (activation)” value is inactive: 16.7%.

On to `COc1ccc(NC(=O)c2cccc(N3C(=O)C4CCC(C)CC4C3=O)c2)c(OC)c1` (stereo not drawn), for which the “growth rescue (activation)” value was inactive: 12.9%.

For the compound `O=c1[nH]c(C2CCN(S(=O)(=O)c3ccc(S(=O)(=O)NC4CC4)cc3)CC2)nc2c1nnn2Cc1cccc(F)c1`, the “growth rescue (activation)” value was inactive: 5.29%.

On to `Cc1ccc(NC(=O)/C=C/c2ccc3c(c2)OCO3)nc1`, for which the “growth rescue (activation)” value was inactive: 13.8%.

Take `Cc1cc(C)n2cc(CSc3nnc(-c4ccccc4)o3)nc2n1`: the “growth rescue (activation)” value is inactive: 1.76%.

In the case of `COc1ccc(/C=C/C(=O)Nc2ccc(N3CCOCC3)cc2)cc1`, the “growth rescue (activation)” value was inactive: 12.4%.

Regarding `Cc1cccc(NC(=O)CN(C)C(=O)/C=C/c2ccccc2)c1C`, the “growth rescue (activation)” value is inactive: -6.9%.

With `O=c1[nH]c2cc(Cl)c([N+](=O)[O-])nc2[nH]1`, the “growth rescue (activation)” value was inactive: -8.45%.

Consider `COc1ccc(S(=O)(=O)Nc2c(C)nc3nc(C)[nH]n3c2=O)cc1`, for which the “growth rescue (activation)” value is inactive: -3.88%.

Take `O=C(CSc1n[nH]c(-c2ccncc2)n1)Nc1ccccc1`: the “growth rescue (activation)” value is inactive: -36.4%.

As for `Cc1ccc(NC(=O)C2CC2)cc1S(=O)(=O)N1CCOCC1`, the “growth rescue (activation)” value is inactive: -6.4%.

For `CCn1c(COc2ccc3c(c2)OCO3)nnc1SCC(=O)c1ccccc1`, the “growth rescue (activation)” value was inactive: 15.4%.

For `COCCCNC(=O)c1cc(Sc2nnc(C)s2)nc2ccccc12`, the “growth rescue (activation)” value is inactive: 2.45%.

As for `O=C(CCNC(=O)c1ccc([N+](=O)[O-])cc1)Nc1ccc(F)c(F)c1F`, the “growth rescue (activation)” value was inactive: -0.903%.

In the case of `CC(=O)C1=C(O)C(=O)N(c2nccs2)C1c1ccc(F)cc1` (stereo not drawn), the “growth rescue (activation)” value was inactive: -6.69%.

In the case of `CCOc1ccc(NC(=O)CCNS(=O)(=O)c2cccc3nonc23)cc1`, the “growth rescue (activation)” value is inactive: -2.82%.

For the compound `CCCC(=O)Nc1c2c(nn1-c1ccc(F)cc1)CS(=O)(=O)C2`, the “growth rescue (activation)” value was inactive: -2.05%.

For the compound `CC(=O)C1=C(O)C(=O)N(c2ccc(O)cc2)C1c1ccc(C)cc1` (stereo not drawn), the “growth rescue (activation)” value was inactive: -0.267%.

On to `CC1=C(C(=O)OC2CCCC2)C(c2coc3ccccc3c2=O)C2=C(CCCC2=O)N1` (stereo not drawn), for which the “growth rescue (activation)” value was inactive: -1.56%.

For `Cc1ccc(C(C)C)cc1S(=O)(=O)NC1CC(C)(C)NC(C)(C)C1`, the “growth rescue (activation)” value was inactive: 6.83%.

In the case of `CC1=CN2C(=N)/C(=C\c3cn(CCCOc4ccccc4)c4ccccc34)C(=O)N=C2S1`, the “growth rescue (activation)” value is inactive: -1.72%.

`CCOC(=O)c1c(C)[nH]c(C)c1C(=O)COC(=O)c1cc(OC)c(OC)cc1OC`: the “growth rescue (activation)” value was inactive: 14.3%.

Take `CCOC(=O)C1(C)CCCN(C(=O)c2ccc(-c3ccccc3)cc2)C1` (stereo not drawn): the “growth rescue (activation)” value is inactive: 14%.

With `COCc1ccc(C(=O)Nc2cccc(S(=O)(=O)N(C)c3ccccc3)c2)cc1`, the “growth rescue (activation)” value was inactive: 15.9%.

Regarding `Cc1ccc(CNC(=O)CN2C(=O)c3ccccc3S2(=O)=O)cc1`, the “growth rescue (activation)” value is inactive: -1.68%.

As for `Cc1ccc2c(c1)C1CN(C)CCC1N2Sc1ccccc1[N+](=O)[O-]` (stereo not drawn), the “growth rescue (activation)” value was inactive: -4.38%.

Consider `COc1ccc(Cl)cc1N/C(N)=N/c1nc(C)cc(C)n1`, for which the “growth rescue (activation)” value is inactive: 11.3%.

Turning to `CCn1c(SCC(=O)N2CCCC(C)C2)nc2c1c(=O)n(C)c(=O)n2C` (stereo not drawn), the “growth rescue (activation)” value is inactive: -3.72%.

As for `CCOc1ccc(Br)cc1CN(CC)CC`, the “growth rescue (activation)” value is inactive: 9.06%.

`COc1ccccc1NC(=O)CSc1nc(-c2ccc(C(C)(C)C)cc2)c(C#N)c(=O)[nH]1`: the “growth rescue (activation)” value was inactive: -15.2%.

Take `CCCN(CC1CC1)C(=O)CSc1nnc(-c2cc(-c3cccs3)nc3ccccc23)o1`: the “growth rescue (activation)” value was inactive: -6.42%.

For the compound `O=[N+]([O-])c1ccc(N2CCCCC2)s1`, the “growth rescue (activation)” value is inactive: -4.9%.
